Results reported in patent EP0369391A2, “N-substituted amides” (BOEHRINGER INGELHEIM PHARMACEUTICALS INC., priority 1988, dated 1990).

How the values were obtained:
Human Thrombin = Human Thrombin (Homo sapiens, UniProt P00734); assay: Selectivity assay: Human Thrombin; assay type: biochemical; conditions: IC50 of 5 or greater is considered inactive
[1] = biological target: Recombitant HIV Proteinase (Human immunodeficiency virus type 1 group M subtype B, UniProt P04585); assay: Selectivity assay: HIV proteinase; assay type: biochemical; conditions: IC50 of 5 or greater is considered inactive

In the case of `CC(C)C(NC(=O)CN(C(=O)[C@@H](NC(=O)c1ccc(C(=O)NS(=O)(=O)c2ccc(Cl)cc2)cc1)C(C)C)C1Cc2ccccc2C1)C(=O)C(F)(F)F` (some centres unmarked) [Compound of Table III], the IC50 (Human Thrombin) is reported as > 6.55 µM and the IC50 [1] is reported as 164 µM.
